Laboratory results: patent US9012397B2 (priority 2011, dated 2015)
Like-named read-outs stand apart in the source and are kept apart here.

What was measured:
Format in all cases: in vivo, human
[1] = tested on: lesions in the oral cavity
Procedure: (§1) The method of the invention has been carried out with respect to a number of skin disorders. The patients were treated with one of two peptides, each at a concentration of 50 μg/gr cream (unless otherwise indicated):
(§2) The cream was manufactured by Amiga LTD, Israel, and contains the following components:
1. A person had several lesions in the middle of the oral cheek cavity (5 lesions of about 3-4 mm each).
3. […] After several weeks the treatment was renewed using toothpaste as a vehicle for the peptides.
5. […] The wound closed completely after 2 days. E. Rashes

[2] = tested on: Fire Ant (Solenopsis spp.) stings; settings: person four, sole of foot; 50 μg/gr cream several times per day
Procedure: as §1, §2
6. person four stepped on a Fire Ant (Solenopsis spp.) nest in Utah, USA, and received stings on the sole of their foot. They felt an extremely strong pain sensation.

cuts in the skin = settings: 4 subjects; 50 μg/gr cream
Procedure: as §1
The cream was manufactured by Amiga LTD, Israel, and contains the following components: […]

[3] = person, lesions generally require 7-10 days to heal, 1000 μg/gr cream

Substance | clinical outcome ([1]; cancer patient, chemotherapy lesions in oral cavity and on lips, 500 μg/gr cream, discontinued due to bad taste) | clinical outcome ([1]; person, lesion on right side of oral cavity, 50 μg/gr cream) | clinical outcome [1, 3] | time until wound closed completely [1, 3] [days] | clinical outcome ([1]; person, 500 μg/gr cream) | clinical outcome [2] | time to relief [2] [min] | clinical outcome ([1]; person, 5 lesions of about 3-4 mm in oral cheek cavity, 50 μg/gr cream) | clinical outcome (cuts in the skin)
pGLU-ASN-TRP-THR [ZEP4] | almost immediate relief in the mouth | almost immediate relief from itching and swelling | almost immediate relief from itching and pain of the wound | 2 | almost immediate relief and the lesion disappeared | a reduction in the pain sensation | 2 to 3 | – | –
pGLU-ASN-TRP-LYS-C8 [ZEP3] | – | – | almost immediate relief from itching and pain of the wound | 2 | – | – | – | almost immediate relief from itching and swelling | effective in closing the wounds without inflammation
